Reference: the RNAGym collection of RNA variant scans (doi:10.1093/nar/gkz1192)
Read counts are not given, so values of variants with three or more changes are uncertain.

B1: CPEB3 Ribozyme (parent)
chain: UAACAGGGGGCCACAGCAGAAGCGUUCACGUCGCAGCCCCUGUCAGAUUCUGGUGAAUCUGCGAAUUCUGCUGUAUAUCUC

Variants of: B1
Experiment: self-cleavage, relative activity (ratio to wild type); higher = more cleavage; in vitro, sequencing
Procedure, shortened: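 Barcoded CPEB3 ribozyme mutants, produced by rounds of error-prone PCR, self-cleaved while being transcribed with T7 RNA polymerase for 5 hours at 37°C and during a subsequent 15 min DNase I step before EDTA was added. Sequencing of template-switched cDNA on Illumina gave cleaved and total reads, and DNA sequencing assigned barcodes to variants. Each variant's relative activity is its cleaved/total read fraction divided by the unmutated ribozyme's fraction, averaged across three batches. A variant needed a minimum of 5 reads.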

Variant	self-cleavage
UAACAGAGGGCCACAGCAGAAGCGCUCACGCCGCUGCCCCUGUCAGAUUCUGGUGAAUCUGCGAAUUCUGCUGUAUAUCUC	0.06
UAACAGAGGGCCACAGCAGAAGCGCUCACGCCGCAGCCCCUGUCAGAUUCUGGUGAAUCUGCGAAUUCUGCUGUAUAUCUA	0.16
UAACAGAGGGCCACAGCAGAAGCGCUCACGUCGCAGCCCCCGUCAGAUUCUGGUGAAUCUGCGAAUUCUGCUGUAUAUCUC	0.32
UAACAGAGGGCCACAGCAGAAGCGCUCACGUCGCAGCCCCUGCCAGAUUCUGGUGAAUCUGCGAACUCUGCUGUAUAUCCC	0.12
UAACAGAGGGCCACAGCAGAAGCGCUCACGUCGCAGCCCCUGUCAGAUUCAGGUGAAUCUGCGAAUUCUGCUGUAUAUCUC	0.05
UAACAGAGGGCCACAGCAGAAGCGCUCACGUCGCAGCCCCUGUCAGAUUCCGGUGAAUCUGCGAGUUCUGCUGUAUAUCCC	0.07
UAACAGAGGGCCACAGCAGAAGCGCUCACGUCGCAGCCCCUGUCAGAUUCUGGUGAAUCCGCGGAGUCUGCUGUAUAUCCC	0.06
UAACAGAGGGCCACAGCAGAAGCGCUCACGUCGCAGCCCCUGUCAGAUUCUGGUGAAUCUGCGAAUUCUGCCGUACAUCUC	0.06
UAACAGAGGGCCACAGCAGAAGCGCUCACGUCGCAGCCCCUGUCAGAUUCUGGUGAAUCUGCGAAUUCUGCUGUACAUCUC	0.28
UAACAGAGGGCCACAGCAGAAGCGGCCACGUCGCAGCCCCUGUCAGAUUCUGGUGAAUCUGCGAAUACUGCUGUAUAUCUC	0.25
UAACAGAGGGCCACAGCAGAAGCGUACACGUCGCAGCCCCUGUCAGAUUCUGGUGUAUCUGCGAGUUCUGCCGUACAUCUC	0.05
UAACAGAGGGCCACAGCAGAAGCGUACACGUCCCAGCCCCUGUCAGAUACUGGUGAAUCUGCGAAAUCUGCUGUAUACCUC	0.04
UAACAGAGGGCCACAGCAGAAGCGUACACGUCGCAGCCCCUGACAGGUUCUGGUGAAUCUGCGAAUUCUGCUGUAUAUCUC	0.09
UAACAGAGGGCCACAGCAGAAGCGUACACGUCGCAGCCCCUGUCAGAUUCUGGUGAAUCAGCGAAUUCUGCUGUAUACCUC	0.11
UAACAGAGGGCCACAGCAGAAGCGUACACGUCGCAGCCCCUGUCAGAUUCUGGUGAAUCUGCGAAUUCUGCCUUAUAUCUC	0.06
UAACAGAGGGCCACAGCAGAAGCGUACACGUCGCAGCCCCUGUCAGAUUCUGGUGAAUCUGCGAAUUCUGCUGUAUACCUC	0.32
UAACAGAGGGCCACAGCAGAAGCGUCCGAGUCGCAGCCCCUGUCAGAAUCUGGUGAAUCUGCGAAUUCUGCUGUAUAUCUC	0.23

Variant	self-cleavage
UAACAGAGGGCCACAGCAGAAGCGUCCACGUCGCGGCCCCUGUCAGAUUCUGGUGAAUCUGCGAAUUCUGCAGUAUAUCUC	0
UAACAGAGGGCCACAGCAGAAGCGUCCACGUCGCUGCCCCUGUCAGAUUCUGGUGAACCUGCGAAUUCUGCUGUAAAUCUC	0.07
UAACAGAGGGCCACAGCAGAAGCGUCCACGUCGCAGCCCCUGUCAGGUUCUGGUGAAUCUGCGAAUUCUGCUGUACAUCUC	0.24
UAACAGAGGGCCACAGCAGAAGCGUCCACGUCGCAGCCCCUGUCAGAUUCUGGUGAAUCUGCGAAUUCUUCUGUAUAUCUC	0.21
UAACAGAGGGCCACAGCAGAAGCGUCCACGCCGCAGCCCCUGUCAGAUUCUGGUGAAUCUGCGAAUUCUGCUGAAUUUCUC	0.05
UAACAGAGGGCCACAGCAGAAGCGUCCACGUCGCAGCCCCCGUCAGAUUCCGGUGAAUCUGCGAAUUCUGCUGUAUAUCUC	0.07
UAACAGAGGGCCACAGCAGAAGCGUCCACGUCGCAGCCCCGGUCAGAUUCUGGUGGAUCUGCGAAUUCUGCUGUAUAUCUC	0.06
UAACAGAGGGCCACAGCAGAAGCGUCCACGUCGCAGCCCCUGCCAGAUUCUGGUGAAUCAGCGAGUUCUGCUGUAUAUCUC	0.3
UAACAGAGGGCCACAGCAGAAGCGUCCACGUCGCAGCCCCUGUCAGAUUCUGGCGAGUCUGCGAAUUCUGCUUUAUAUCUC	0.06
UAACAGAGGGCCACAGCAGAAGCGUCCACGUCGCAGCCCCUGUCAGAUUCUGGUGAAUCUGCGAAUUCUGCUGUAUACCUC	0.08
UAACAGAGGGCCACAGCAGAAGCGUGCACGUCGCAGCCCUUGUCAGAUUCUGGUGAAUCUGCAAAUUCUGCUGUAUAUCCC	0.06
UAACAGAGGGCCACAGCAGAAGCGUUCACGACGCAGCCCCCGUCAGAUUCUGGUGAAUCUGCGAAUUCUGCUGUAUAUCUC	0.25
UAACAGAGGGCCACAGCAGAAGCGUUCACGCCGCCGCCCCUGUCAGAUUCCGGUGCAUCUGCGGUUUCUGCUGUAUAUCUC	0.05
UAACAGAGGGCCACAGCAGAAGCGUUCACGCCGCGGCCCCUGUCAGAUUCUGGUGGAUCUGCGAAUUCUGCUGUAUAUCUC	0.18
UAACAGAGGGCCACAGCAGAAGCGUUCACGCCGCAGCCCCUGUCGGAUUCCGGUGAAUCUGCGAAUUCUGCUGUAUAUCUC	0.06
UAACAGAGGGCCACAGCAGAAGCGUUCACGCGGCAGCCCCUGUCAGAUUCUGGUGAAUCUGCGAAUUCCGCUGUAUAUCUC	0.13
UAACAGAGGGCCACAGCAGAAGCGUUCACGCCGCAGCCCCCGUCAGAUUCUGGUGAAUCUGCGAAUUCUGCUGUAUAUCUC	0.21
